Test results reported in the supplement of paper PMC4604168 (melanoma cell lines).
The list shows a part of the results. Many values rest on one well or one pass, so single values are uncertain.

Tested on: C32
Experiment: cell count relative to DMSO control; melanoma cells; higher = more viable cells
Settings: library dose: low library concentration; 72 h
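Also: cell number obtained by counting DAPI-stained nuclei in high-throughput microscope images with image analysis software, screen run in 1,536-well plates.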

| Compound | cell count [%] |
| --- | --- |
| COc1ccc(C2=N[C@@H](c3ccc(Cl)cc3)[C@@H](c3ccc(Cl)cc3)N2C(=O)N2CCNC(=O)C2)c(OC(C)C)c1 [Nutlin-3] + C=C(c1ccc(C(=O)O)cc1)c1cc2c(cc1C)C(C)(C)CCC2(C)C [Bexarotene] (first compound 0.1 µM, partner dose 2 µM) | 96.4 |
| Cc1cc(Nc2cc(N3CCN(C)CC3)nc(/C=C/c3ccccc3)n2)n[nH]1 + Cc1nc(Nc2ncc(C(=O)Nc3c(C)cccc3Cl)s2)cc(N2CCN(CCO)CC2)n1 [dasatanib] (first compound 0.04 µM, partner dose 0.004 µM) | 91.6 |
| Cc1cn(-c2cc(NC(=O)c3ccc(C)c(Nc4nccc(-c5cccnc5)n4)c3)cc(C(F)(F)F)c2)cn1 [nilotinib] + CC(=O)O[C@@]12CO[C@@H]1C[C@H](O)[C@@]1(C)C(=O)[C@H](O)C3=C(C)[C@@H](OC(=O)[C@H](O)[C@@H](NC(=O)OC(C)(C)C)c4ccccc4)C[C@@](O)([C@@H](OC(=O)c4ccccc4)[C@H]21)C3(C)C [Docetaxel] (first compound 0.2 µM, partner dose 0.0001 µM) | 87.1 |
| Cn1c(=O)n(-c2ccc(C(C)(C)C#N)cc2)c2c3cc(-c4cnc5ccccc5c4)ccc3ncc21 + CO[C@H]1C[C@@H]2CC[C@@H](C)[C@@](O)(O2)C(=O)C(=O)N2CCCC[C@H]2C(=O)O[C@H]([C@H](C)C[C@@H]2CC[C@@H](OCCO)[C@H](OC)C2)CC(=O)[C@H](C)/C=C(\C)[C@@H](O)[C@@H](OC)C(=O)[C@H](C)C[C@H](C)/C=C/C=C/C=C/1C [everolimus] (first compound 0.004 µM, partner dose 0.02 µM) | 74.1 |
| COc1ccc(C2=N[C@@H](c3ccc(Cl)cc3)[C@@H](c3ccc(Cl)cc3)N2C(=O)N2CCNC(=O)C2)c(OC(C)C)c1 [Nutlin-3] + C[C@]1(c2nc3c(C(N)=O)cccc3[nH]2)CCCN1 [Veliparib] (first compound 0.1 µM, partner dose 1.4 µM) | 89.4 |
| COc1ccc(C2=N[C@@H](c3ccc(Cl)cc3)[C@@H](c3ccc(Cl)cc3)N2C(=O)N2CCNC(=O)C2)c(OC(C)C)c1 [Nutlin-3] + Nc1cccc2c1CN(C1CCC(=O)NC1=O)C2=O [lenalidomide] (first compound 0.1 µM, partner dose 1 µM) | 89.6 |
| CC(C)C[C@H](NC(=O)[C@H](Cc1ccccc1)NC(=O)c1cnccn1)B(O)O [Bortezomib] + O=C(O)[C@@H]1[O][Sb](=[O])([O][Sb]2(=[O])[O][C@H]([C@H](O)CO)[C@H](O)[C@H](C(=O)O)[O]2)[O][C@H]([C@H](O)CO)[C@@H]1O [stibogluconate] (first compound 0.001 µM, partner dose 2 µM) | 96.4 |
| COc1ccc(C2=N[C@@H](c3ccc(Cl)cc3)[C@@H](c3ccc(Cl)cc3)N2C(=O)N2CCNC(=O)C2)c(OC(C)C)c1 [Nutlin-3] + Nc1ccn([C@@H]2O[C@H](CO)[C@@H](O)C2(F)F)c(=O)n1 [gemcitabine] (first compound 0.1 µM, partner dose 0.0004 µM) | 95.5 |
| Cc1cc(Nc2cc(N3CCN(C)CC3)nc(/C=C/c3ccccc3)n2)n[nH]1 + CCCS(=O)(=O)Nc1ccc(F)c(C(=O)c2c[nH]c3ncc(Cl)cc23)c1F [PLX4720] (first compound 0.04 µM, partner dose 0.08 µM) | 90.3 |
| Cn1c(=O)n(-c2ccc(C(C)(C)C#N)cc2)c2c3cc(-c4cnc5ccccc5c4)ccc3ncc21 + COc1ccc(Cl)c(Nc2nc3ccccc3nc2NS(=O)(=O)c2cccc(NC(=O)C(C)(C)N)c2)c1 [XL147] (first compound 0.004 µM, partner dose 0.8 µM) | 90.1 |
| Cc1cn(-c2cc(NC(=O)c3ccc(C)c(Nc4nccc(-c5cccnc5)n4)c3)cc(C(F)(F)F)c2)cn1 [nilotinib] + NC(=O)c1ccc(N(C(N)=O)c2c(F)cccc2F)nc1-c1ccc(F)cc1F [VX702] (first compound 0.2 µM, partner dose 0.4 µM) | 105 |
| Cc1cn(-c2cc(NC(=O)c3ccc(C)c(Nc4nccc(-c5cccnc5)n4)c3)cc(C(F)(F)F)c2)cn1 [nilotinib] + O=C(O)c1ccc2c(c1)nc(Nc1cccc(Cl)c1)c1ccncc12 [CX4945] (first compound 0.2 µM, partner dose 0.4 µM) | 85.1 |
